Values marked as one replicate rest on one cluster of the flow cell; about a third of the high ones do not repeat.
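Note: ATP exposure 15 min at 22 °C before imaging.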

This data set has as its system ATP. In words: switch fluorescence ratio, 500 uM ATP over buffer (Cy3 cluster intensity, sum of 5 cycles each) (fold (ratio)); higher = stronger signal-on switching upon ATP binding; sequences stand for … in TCGTCGGCAGCGTCAGATGTGTATAAGAGACAGTTTTTTTTTTTTTTTTTTTTTTTTT…TC. The note with it: aptamer strand: ATP DNA aptamer (quencher-CACCTGGGGGAGTATTGCGGAGGAAGG + anchor), 100 nM annealed; ATP concentration: 500 uM; one replicate. The gist of the method:
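Five buffer/ATP imaging cycles were run on Cy3-labelled switching-strand clusters on a modified Illumina MiSeq flow-cell, with NaOH stripping and re-annealing between cycles. In each cycle, clusters annealed to 100 nM quencher-labelled ATP aptamer were imaged in selection buffer, then after 15 min with 500 uM ATP at 22 °C. Per cluster, the fluorescence ratio is summed target-cycle over summed buffer-cycle Cy3 intensity, averaged per switch-domain sequence. Only clusters within 100-1000 RFU were kept.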
For the sequence TATATAGCAA, the switch fluorescence ratio was found to be 1.58.

With GGGAATACCT, the switch fluorescence ratio came out at 1.21.

As to ATTAAAGGC, the switch fluorescence ratio worked out at 1.08.

With GAAGTTAGTG, the switch fluorescence ratio was determined as 0.97.

As for ATTATCAAGC, the switch fluorescence ratio turned out to be 1.03.

For the sequence CTATTTGTG, the switch fluorescence ratio was 0.986.

As to GACGCCTTTT, the switch fluorescence ratio is 1.03.

With TTTGTCTTT, the switch fluorescence ratio worked out at 0.977.

Regarding ATGGTGATAA, the switch fluorescence ratio is 0.979.

CGTGAAGTGG: the switch fluorescence ratio amounted to 0.966.

For CAAACGGAGA, the switch fluorescence ratio was determined as 0.983.

For the sequence TCAATCGGGA, the switch fluorescence ratio worked out at 1.

For the sequence CAAAGTCCCG, the switch fluorescence ratio stood at 0.997.

Turning to AAACCTAGGG, the switch fluorescence ratio worked out at 1.01.

In the case of AATTATATTT, the switch fluorescence ratio worked out at 1.

For TGTAACGACA, the switch fluorescence ratio stood at 1.04.

ACTGGCTCCA: the switch fluorescence ratio stood at 1.06.

In the case of AGTTAAACCC, the switch fluorescence ratio is 1.06.

On to TCTGCATCAC, for which the switch fluorescence ratio worked out at 3.36.

Consider TAACCTAAGG, for which the switch fluorescence ratio was found to be 0.973.

With ATGTTAACAT, the switch fluorescence ratio was found to be 0.99.

In the case of TCACGAATAA, the switch fluorescence ratio came out at 1.06.

Regarding GGCGGGACCT, the switch fluorescence ratio is 1.03.

AAGACCCTG: the switch fluorescence ratio amounted to 1.06.

For the sequence TTCAGTTTC, the switch fluorescence ratio came to 1.01.

Take AAACGGCCGA: the switch fluorescence ratio was found to be 0.979.

Consider ATATTGGGAT, for which the switch fluorescence ratio was 0.981.

For the sequence AGCCAAACAG, the switch fluorescence ratio was found to be 0.945.

With ATTACCTAGG, the switch fluorescence ratio was determined as 1.03.

On to GCGCTTGCCG, for which the switch fluorescence ratio is 1.03.

Regarding AGTTTCGTC, the switch fluorescence ratio is 0.96.

With AGCTGTGTCA, the switch fluorescence ratio turned out to be 0.993.

With CGAGCGACCT, the switch fluorescence ratio turned out to be 1.21.

On to AGCGCTGAG, for which the switch fluorescence ratio amounted to 1.02.

On to AATCACTAGT, for which the switch fluorescence ratio stood at 1.03.

On to GTTGGTACAT, for which the switch fluorescence ratio is 0.984.

As for TTGTGTCGAA, the switch fluorescence ratio is 0.986.

With ACTCGCATAT, the switch fluorescence ratio amounted to 5.02.

Consider CTAACAGGAT, for which the switch fluorescence ratio turned out to be 0.997.

For ACAAGCGGGG, the switch fluorescence ratio was 0.956.

Consider AATCTTTTT, for which the switch fluorescence ratio is 0.995.

As to GTCGTCATGG, the switch fluorescence ratio stood at 1.05.

For TAACTCTTCT, the switch fluorescence ratio came to 0.992.

Regarding CGTCGGTGTG, the switch fluorescence ratio is 0.993.

With TCGGGTGGC, the switch fluorescence ratio amounted to 0.951.

GAGTGCTCCA: the switch fluorescence ratio stood at 0.975.

Take CACTGTAATT: the switch fluorescence ratio amounted to 1.22.

As for CATATCAAGT, the switch fluorescence ratio amounted to 0.958.

TGTATGTTGG: the switch fluorescence ratio was 0.989.

GAGAAGTCGG: the switch fluorescence ratio turned out to be 0.958.

As to ACAGCATTAT, the switch fluorescence ratio was 1.23.

For TGAGAATATA, the switch fluorescence ratio was 1.02.

On to CGTCTAGAGT, for which the switch fluorescence ratio is 0.957.

For GTTAGTGCTT, the switch fluorescence ratio turned out to be 1.01.

TCGTGAGAGC: the switch fluorescence ratio turned out to be 0.999.

Regarding CACCTGTCGC, the switch fluorescence ratio was determined as 1.13.

On to CTTAATGCAC, for which the switch fluorescence ratio was 1.07.

Regarding AGGAGAAAGC, the switch fluorescence ratio stood at 1.08.

With GCAGATTCAG, the switch fluorescence ratio came out at 0.993.

Take AACTATTGCA: the switch fluorescence ratio is 0.963.

As for TTACATCTCC, the switch fluorescence ratio was 1.08.

Turning to CCAGTGGAG, the switch fluorescence ratio was 0.989.

On to TTCTTTTCGA, for which the switch fluorescence ratio was 1.01.

In the case of GCTGATGATT, the switch fluorescence ratio worked out at 0.977.

As for CTGCGGGATC, the switch fluorescence ratio amounted to 1.25.

TACTATTCG: the switch fluorescence ratio is 0.945.

For GGATTGCTGT, the switch fluorescence ratio came out at 1.01.

In the case of CATGGGTTGG, the switch fluorescence ratio amounted to 0.941.

On to TTGTGGGCTC, for which the switch fluorescence ratio worked out at 1.01.

For AGATGAGATC, the switch fluorescence ratio was 1.01.

AGTCCGTAC: the switch fluorescence ratio stood at 1.31.

GCCGTATGTG: the switch fluorescence ratio turned out to be 1.03.

With TGACAGAGGC, the switch fluorescence ratio worked out at 1.01.

On to ACGCGGGGAT, for which the switch fluorescence ratio is 1.04.

Consider GTTACGGGG, for which the switch fluorescence ratio was determined as 1.01.

As for GTTTAGCCTT, the switch fluorescence ratio is 1.01.

Regarding GCTTAAAATA, the switch fluorescence ratio was determined as 0.974.

Turning to TCTGCGGGTT, the switch fluorescence ratio is 0.979.

CCAGGTGAAG: the switch fluorescence ratio was 2.51.

The values above are taken from the supplement of paper PMC10126150.
